{
  "source": "ChEMBL document CHEMBL4888484",
  "about": "“Replenishing the malaria drug discovery pipeline: Screening and hit evaluation of the MMV Hit Generation Library 1 (HGL1) against asexual blood stage Plasmodium falciparum ,using a nano luciferase reporter read-out” (2022)",
  "note": "The whole screen tested about 150,000 compounds, of which about 540 (0.36%) showed an effect of 50% or more. This is one part of the list.",
  "data": [
    {"tested_on": "Plasmodium falciparum", "test": "Primary screen in NF54 nanoGlo assay, in single point, at 2uM, 72h; a lower Z score goes with more inhibition", "format": "functional, Erythrocyte", "conditions": "timepoint 72 hour", "units": {"% Inhibition": "%"}, "values": [
      {"smiles": "Cn1cc(S(=O)(=O)N2CCCN(C(=O)CCS(=O)(=O)c3ccccc3)CC2)cn1", "% Inhibition": -3, "Z score": 0.47},
      {"smiles": "CCc1ncc2c(n1)CN(C(=O)c1snnc1CC)C2", "% Inhibition": -7, "Z score": 1.42},
      {"smiles": "O=C(NC1CCOc2ccccc21)C1CCCO1", "note": "(stereo not drawn)", "% Inhibition": -3, "Z score": 0.47},
      {"smiles": "O=C(c1c2c(nc3ccccc13)CCCC2)N1CCOCC1", "% Inhibition": -13, "Z score": 1.58},
      {"smiles": "CC(C)(C)C1CCN(c2ncnc(Oc3ccccc3F)c2N)CC1", "% Inhibition": -7, "Z score": 1.12},
      {"smiles": "COc1ccc(CN2CNc3nc(C)c(C)c(=O)n3C2)cc1", "% Inhibition": -8, "Z score": 1.1},
      {"smiles": "O[C@@H](COc1ccc2cncnc2c1)C(F)(F)F", "% Inhibition": -6, "Z score": 0.91},
      {"smiles": "CS(=O)(=O)N1CCC[C@H](C(=O)N2CCN(c3ccc(F)cc3)CC2)CCNC(=O)CC1", "% Inhibition": 10, "Z score": -1.29},
      {"smiles": "CC(Oc1ccccc1)C(=O)N1C2CCC1CC(n1ccnn1)C2", "note": "(stereo not drawn)", "% Inhibition": -3, "Z score": 0.44},
      {"smiles": "COCCNC(=O)[C@H](CC(C)C)Nc1ncccn1", "% Inhibition": -10, "Z score": 1.03},
      {"smiles": "O=C(Nc1nc2c(s1)CCCC2)C(c1ccccc1)c1ccccc1", "% Inhibition": -29, "Z score": 2.53},
      {"smiles": "COc1ccc(CN2CCN(S(=O)(=O)c3cccnc3)CC2)cn1", "% Inhibition": -2, "Z score": 0.26},
      {"smiles": "OC(CN1CCCC(N2CCCCC2)C1)c1ccc(F)c(F)c1", "note": "(stereo not drawn)", "% Inhibition": -6, "Z score": 0.52},
      {"smiles": "CCc1nnc(-c2cc(S(=O)(=O)NCc3ccc(C)o3)c[nH]2)o1", "% Inhibition": -6, "Z score": 1.12},
      {"smiles": "Cc1nc(-c2cnn(C)c2)sc1C(=O)N(CCC(C)C)CCC(C)C", "% Inhibition": 0, "Z score": 0.02},
      {"smiles": "CC1(C)C[C@]2(NC(=O)N(Cc3c(Cl)oc4ccccc34)C2=O)C(C)(C)O1", "% Inhibition": -6, "Z score": 1.08},
      {"smiles": "O=C(Nc1cc(Cl)ccc1Cl)[C@@H]1CCCN1C(=O)c1ccoc1", "% Inhibition": 21, "Z score": -2.66},
      {"smiles": "CCCn1ccnc1[C@@H]1c2nc[nH]c2CCN1Cc1cccnc1N", "% Inhibition": -13, "Z score": 1.35},
      {"smiles": "CCOCc1nc([C@@H]2CCCN2S(=O)(=O)c2cccc(F)c2)no1", "% Inhibition": -10, "Z score": 1.27},
      {"smiles": "Cc1cc2c(cc1S(=O)(=O)NC1CCCC(C)C1C)OCC(=O)N2", "note": "(stereo not drawn)", "% Inhibition": -10, "Z score": 1.61},
      {"smiles": "CC1CCN(Cc2ccc(CNCc3c[nH]nc3-c3ccc(F)cc3)cc2)CC1", "% Inhibition": 37, "Z score": -4.62},
      {"smiles": "C=C(C)COc1ccc(CN2CCCNC(=O)C2)cc1OCC", "% Inhibition": -13, "Z score": 1.17},
      {"smiles": "c1cn(CCCOc2ccc(CN3CCc4n[nH]cc4C3)cc2)cn1", "% Inhibition": -10, "Z score": 1.29},
      {"smiles": "COc1ccc(N2C(=O)c3ccccc3N[C@]23C(=O)N(Cc2ccccc2F)c2ccccc23)cc1", "% Inhibition": 1, "Z score": -0.1},
      {"smiles": "FC(F)[C@@H]1Oc2ccccc2C[C@H]1c1nc(-c2cn[nH]c2)no1", "% Inhibition": -3, "Z score": 0.65},
      {"smiles": "CC(=O)N[C@H]1C[C@@H](c2cc(NCc3ccsc3)nc(C)n2)C1", "% Inhibition": 5, "Z score": -0.66},
      {"smiles": "CC(=O)N1CCC[C@H]1C(=O)N1CCc2ccccc2C1", "% Inhibition": -6, "Z score": 0.7},
      {"smiles": "CCc1cnc(C)nc1NC[C@H]1CN(CC2CCN(CC3CC3)CC2)C(=O)CO1", "% Inhibition": 5, "Z score": -0.67},
      {"smiles": "O=C(c1cc2ccccn2c1)N1CC[C@H](Oc2ncccn2)C1", "% Inhibition": -4, "Z score": 0.67},
      {"smiles": "Cc1ccc(-c2cc3c(cc2OC(C)(C)C(=O)O)OCC3)cc1C#N", "% Inhibition": 1, "Z score": -0.17},
      {"smiles": "CC#CCN(C)C(=O)[C@H]1CCCC(F)(F)C1", "% Inhibition": -8, "Z score": 0.85},
      {"smiles": "c1ccc(-c2nc(C[C@H]3CCCNC3)no2)cc1", "% Inhibition": -17, "Z score": 2.61},
      {"smiles": "CC[C@]1(O)CCN(c2cccnc2C#N)C1", "% Inhibition": 1, "Z score": -0.17},
      {"smiles": "CC1CCN(C[C@H]2CCCN(C(=O)Nc3ccccc3F)CC2)CC1", "% Inhibition": 1, "Z score": -0.14},
      {"smiles": "COCCN(CCOC)C(=O)NCc1cccc(Cl)c1Cl", "% Inhibition": 11, "Z score": -1.94},
      {"smiles": "CCS(=O)(=O)N1C[C@@H]2CN(Cc3ccc(F)c(F)c3)C[C@]2(c2nc(C)no2)C1", "% Inhibition": -12, "Z score": 1.65},
      {"smiles": "c1ccc2c(CCCc3nc4nccc(-c5ccc6c(c5)OCCCO6)n4n3)c[nH]c2c1", "% Inhibition": -6, "Z score": 0.76},
      {"smiles": "Cc1cc(C2(NC(=O)Nc3cc(C4(C)CCCC4)on3)CCOCC2)on1", "% Inhibition": -14, "Z score": 2.48},
      {"smiles": "CC(C)c1nc(CCCN(C)C)n(-c2cccc(Cl)c2)n1", "% Inhibition": -7, "Z score": 1.05},
      {"smiles": "C[C@@H](CN(C)c1cc(-n2cccn2)nc(N)n1)C(=O)O", "% Inhibition": -9, "Z score": 1.74},
      {"smiles": "CCOc1ccccc1S(=O)(=O)N1C2C=CCC1CC2", "note": "(stereo not drawn)", "% Inhibition": 6, "Z score": -1.08},
      {"smiles": "CC(C)(C)C1CNC(=O)C1C(=O)NCCc1ccc(Cl)cc1", "note": "(stereo not drawn)", "% Inhibition": -1, "Z score": 0.09},
      {"smiles": "CCN(C)CC(=O)N1CCC2(CC1)CC(=O)N(Cc1cc(F)cc(F)c1)C2", "% Inhibition": -14, "Z score": 2.32},
      {"smiles": "O=C(c1ccccc1Br)N1CCC(n2ccnn2)CC1", "% Inhibition": -6, "Z score": 1.16},
      {"smiles": "O=S(=O)(c1ccc(/C=C/c2nc3ccccc3o2)cc1)N1CCOCC1", "% Inhibition": -31, "Z score": 3.63},
      {"smiles": "Cc1cccc(-c2nc(C[N+]3(Cc4nc(-c5cccc(C)c5)oc4C)CCCC3)c(C)o2)c1", "% Inhibition": 29, "Z score": -6.09},
      {"smiles": "Nc1nccnc1C(=O)NC[C@@H](c1ccco1)N1CCCC1", "% Inhibition": -3, "Z score": 0.44},
      {"smiles": "COc1ccccc1[C@H]1CCN(S(=O)(=O)c2cc(Cl)ccc2C)C1", "% Inhibition": -6, "Z score": 0.64},
      {"smiles": "O=S(=O)(CC1CC(F)(F)C1)NC1CCC1", "% Inhibition": -6, "Z score": 0.91},
      {"smiles": "O=C(O)C1C2C=CC(C2=C(c2ccccc2)c2ccccc2)C1C(=O)Nc1ccccn1", "note": "(stereo not drawn)", "% Inhibition": -16, "Z score": 1.91},
      {"smiles": "CN(C)[C@H]1[C@@H]2CC[C@H]1CN(C(=O)c1cccc(Oc3ccccc3)c1)C2", "% Inhibition": -5, "Z score": 1.15},
      {"smiles": "CC(C)Oc1cc(N2N=CCCN(C)C2=O)c(F)cc1Cl", "% Inhibition": -47, "Z score": 5.48},
      {"smiles": "CS(=O)(=O)Cc1ccc(-c2cccc3ccnn23)nc1", "% Inhibition": 5, "Z score": -1.01},
      {"smiles": "CN(C)[C@H]1[C@@H]2CC[C@H]1CN(Cc1cnc(NCc3ccccc3)nc1)C2", "% Inhibition": 11, "Z score": -1.47}
    ]}
  ]
}
